Test results: US5714467A, “Antibacterial and antimalarial hybrid peptides” (The Rockefeller University, priority 1993, dated 1998)
Not every detail of the peptide structures is certain; ends, links or a residue may be inferred. Where no end group is shown, it is not given here.

Experiments:
[1] = test system: Plasmodium falciparium strain F32 (Tanzania), blood stream forms; test: inhibition of reinvasion of human red cells by malaria parasite; assay type: cell-based, Plasmodium falciparum; conditions: for IC50: Table 4, P. falciparum, read-out: 50% Reinvasion Inhibition; for antimalarial potency in words: FIG. 1, blood stream form of Plasmodium falciparium
Description: Hybrid peptides CA(1-13)M(1-13) and CA(1-8)M(1-18) were prepared as described above (see Examples 1-6) and were assayed for activity against the blood stream form of Plasmodium falciparium. For comparison the test included cecropins A and B and the frog skin peptides magainin 2 and PGLa.
The blood stream forms of the malaria parasite Plasmodium falciparium, primarily late trophozoites and early schizonts, were assayed by recording the inhibition of the reinvasion of human red cells by the method of Wahlin, B., et al, (1984) Proc. Nat'l Acad. Sci. USA 81, 7912-16, incorporated herein by reference. Quadruplicate microcultures of strain F32 (Tanzania) were incubated for 20 hrs at 37° C. in a complete tissue culture medium, with or without different concentrations of the peptides to be assayed. After acridine orange staining, the percentage of newly infected red cells was scored in a fluorescence microscope. For each culture 40,000 red cells were analysed for parasitic infection. Duplicate assays were run for CA(1-13)M(1-13).

[2] = test system: Pseudomonas aeruginosa OT97; test: inhibition zone assay, lethal concentration; assay type: cell-based; conditions: for Lethal concentration, Pseudomonas aeruginosa OT97: Table 2, no incubation footnote
Description: (§1) The products of the invention were tested for activity against a variety of test organisms selected to represent a number of different types of pathogens some of them known to be particularly virulent by the inhibition zone assay of Hoffmann et al (1981) Insect Biochem. 11 537-548 which is incorporated herein by reference. Thin agar or agarose plates (8.5 cm diameter) were prepared with 6 ml of rich medium containing 100 ug/ml of streptomycin and 2×10^5 viable cells of a test organism resistant to streptomycin. Wells of […] diameter were punched in the plates and 3 ul of serially diluted samples were placed in the wells. The diameters of the zones of inhibition around the wells were measured after overnight incubation at 30° or 37° C. For each peptide the squares of the zone diameters were plotted against the logarithm of the concentration, and from the slopes and intercepts the lethal concentrations were calculated as described by Hultmark (1983) EMBO J. 2, 571-76 or Hultmark et al (1982) Eur. J. Biochem. 127 207-217 each of which being incorporated herein by reference.
(§2) It was observed during testing that basic peptides often bind to agar plates, but not so much to agarose. Therefore those lethal concentrations determined on agar may, in fact, be substantially higher than the actual lethal concentrations.
(§3) Novel peptides CA(1-8)M(1-18), CA(1-9)M(1-17), CB(1-13)M(1-13), CA(1-17)M(1-9), CA(1-18)M(1-8), M(1-13)CA(1-22) and M(1-13)CA(1-13) were prepared as described above (see Examples 1-6). These novel peptides and CA, CB, and M were tested for activity against a variety of organisms selected to represent a number of different types of pathogens, some of them known to be particularly virulent by the inhibition zone assay of Hoffmann et al (1981), Insect Biochem. 11 537-48. As in Examples 1-6, thin agarose plates were prepared with the respective organisms. The diameters of the zones of inhibition were measured after overnight incubation at 30° C. The lethal concentrations were determined as described above (see Examples 1-6; Hultmark et al articles cited thereat).

Bacillus subtilis Bs11 = test: inhibition zone assay, lethal concentration; assay type: cell-based; conditions: for Lethal concentration, Bacillus subtilis Bs11: Table 2, no incubation footnote
Description: as §1, §2, §3

[3] = test system: Staphylococcus aureus Cowan I; test: inhibition zone assay, lethal concentration; assay type: cell-based; conditions: for Lethal concentration, Staphylococcus aureus Cowan I: Table 2, no incubation footnote
Description: as §1, §2, §3

Streptococcus pyogenes = test: inhibition zone assay, lethal concentration; assay type: cell-based; conditions: for Lethal concentration, Streptococcus pyogenes: Table 2, no incubation footnote
Description: as §1, §2, §3

Escherichia coli D21 = test: inhibition zone assay, lethal concentration; assay type: cell-based; conditions: for Lethal concentration, Escherichia coli D21: Table 2, no incubation footnote
Description: as §1, §2, §3

Bacillus megaterium BM11 = test: inhibition zone assay, lethal concentration; assay type: cell-based; conditions: Table 2, no incubation footnote
Description: as §1, §2

[4] = Table 3, agarose plates, overnight incubation at 30° C.

Molecule | IC50 [1] | Lethal concentration, Pseudomonas aeruginosa OT97 [2] | Lethal concentration, Bacillus subtilis Bs11 (Bacillus subtilis Bs11) | Lethal concentration, Staphylococcus aureus Cowan I [3] | Lethal concentration, Streptococcus pyogenes (Streptococcus pyogenes) | Lethal concentration, Escherichia coli D21 (Escherichia coli D21) | Lethal concentration, Bacillus megaterium BM11 (Bacillus megaterium BM11) | antimalarial potency in words [1] | antimalarial potency in words ([1]; listed as CA(1-18)M(1-18)) | Lethal concentration, OT97 = P. aeruginosa [2, 4] | Lethal concentration, Bs11 = B. subtilis (Bacillus subtilis Bs11; [4]) | Lethal concentration, Bs11 + ME = B. subtilis, plates prepared with medium E (Bacillus subtilis Bs11; Table 3, medium E, agarose plates, overnight incubation at 30° C.) | Lethal concentration, Staph = S. aureus Cowan I [3, 4] | Lethal concentration, Strep = S. pyogenes (Streptococcus pyogenes; [4]) | Lethal concentration, D21 = E. coli (Escherichia coli D21; [4])
KWKLFKKIGAVLKVL-NH2 [CA(1-7)M(2-9)] | 7.5 µM | 4 µM | 0.5 µM | 2 µM | 0.5 µM | 1 µM | 0.7 µM |  |  |  |  |  |  |  | 
KWKLFKKVLKVLTTG-NH2 [CA(1-7)M(5-12)] | 9 µM | 2 µM | 0.3 µM | 8 µM | 0.4 µM | 0.5 µM | 0.5 µM |  |  |  |  |  |  |  | 
CC[C@H](C)[C@H](NC(=O)CNC(=O)[C@@H](NC(=O)[C@H](CCCCN)NC(=O)[C@H](CCCCN)NC(=O)[C@H](Cc1ccccc1)NC(=O)[C@H](CC(C)C)NC(=O)[C@H](CCCCN)NC(=O)[C@H](Cc1c[nH]c2ccccc12)NC(=O)[C@@H](N)CCCCN)[C@@H](C)CC)C(=O)NCC(=O)N[C@@H](C)C(=O)N[C@H](C(=O)N[C@@H](CC(C)C)C(=O)N[C@@H](CCCCN)C(=O)N[C@H](C(=O)N[C@@H](CC(C)C)C(=O)N[C@H](C(=O)N[C@H](C(=O)NCC(=O)N[C@@H](CC(C)C)C(=O)N1CCC[C@H]1C(=O)N[C@@H](C)C(=O)N[C@@H](CC(C)C)C(=O)N[C@H](C(=O)N[C@@H](CO)C(N)=O)[C@@H](C)CC)[C@@H](C)O)[C@@H](C)O)C(C)C)C(C)C [CA(1-8)M(1-18)] | 4 µM |  |  |  |  |  |  | about four times more potent than CA(1-13)M(1-13) | even more potent than CA(1-13)M(1-13) | 0.7 µM | 0.4 µM | 0.5 µM | 1 µM | 2 µM | 0.3 µM
KWKLFKKGIGAVLKV-NH2 [CA(1-7)M(1-8)] |  | 15 µM | 1.4 µM | 29 µM | 0.7 µM | 4 µM | 0.8 µM |  |  |  |  |  |  |  | 
